The values below come from the BET-seq Pho4 binding data (Le et al. 2018).

This is one part of the list. Values were computed here from the reads of four pooled replicates and scatter widely.

The experiment has as its target T1, Pho4 (S. cerevisiae) (UniProt P07270).
T1 sequence: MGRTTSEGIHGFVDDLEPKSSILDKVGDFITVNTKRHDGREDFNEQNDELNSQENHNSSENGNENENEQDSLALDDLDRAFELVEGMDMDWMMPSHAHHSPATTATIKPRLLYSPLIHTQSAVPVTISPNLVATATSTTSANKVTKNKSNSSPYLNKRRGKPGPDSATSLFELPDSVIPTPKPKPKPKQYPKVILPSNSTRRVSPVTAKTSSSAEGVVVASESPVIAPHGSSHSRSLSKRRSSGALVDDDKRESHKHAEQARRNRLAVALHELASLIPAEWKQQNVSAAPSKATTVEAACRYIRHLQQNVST
The experiment in a line: relative binding free energy (BET-seq); higher = weaker binding. Particulars: reference: library average.
As to GTATGCACGTGTAAAA, the “relative binding free energy” value was 0.19 kcal/mol. Then ATATTCACGTGCAAGT, with 0.27 kcal/mol; and TAGTTCACGTGTTTGT, with 0.29 kcal/mol; and GTAGACACGTGGTCAG, with -0.05 kcal/mol. Then GTGTGCACGTGTATTG, with -0.03 kcal/mol. AGATTCACGTGAGGGC: the “relative binding free energy” value is 0.38 kcal/mol.

Turning to CCTTTCACGTGGGTGT, the “relative binding free energy” value is 0.07 kcal/mol. Consider TGTGTCACGTGTGCAA, for which the “relative binding free energy” value is -0.07 kcal/mol. In the case of TTTTTCACGTGTTCCG, the “relative binding free energy” value stood at 0.26 kcal/mol. Turning to TTCTTCACGTGATTTA, the “relative binding free energy” value amounted to 0.17 kcal/mol.

For the sequence TGGAGCACGTGGTTTC, the “relative binding free energy” value is -0.15 kcal/mol. Then TGCGTCACGTGGTCTA, with 0 kcal/mol; and GATGCCACGTGCGGTG, with -0.1 kcal/mol.

Regarding TTAGGCACGTGTAGTA, the “relative binding free energy” value was determined as 0.1 kcal/mol.

Take TTTCACACGTGTTTGG: the “relative binding free energy” value is 0.07 kcal/mol.

Regarding AGGTGCACGTGGGTCC, the “relative binding free energy” value is -0.15 kcal/mol.

Regarding AATGTCACGTGGTTAT, the “relative binding free energy” value came to 0.07 kcal/mol. For GTGGTCACGTGAAAGA, the “relative binding free energy” value was determined as 0.48 kcal/mol.

On to GTTAGCACGTGGGCCG, for which the “relative binding free energy” value was -0.16 kcal/mol. Then ATTTTCACGTGATTGG, with 0.32 kcal/mol; and ATTATCACGTGGCGCG, with 0.07 kcal/mol; and GATTGCACGTGTTGTC, with 0.03 kcal/mol. CCGAGCACGTGGGGTT: the “relative binding free energy” value is -0.15 kcal/mol. In the case of GAGGTCACGTGTCATT, the “relative binding free energy” value turned out to be 0.2 kcal/mol.

For GTTTGCACGTGTTGTC, the “relative binding free energy” value was determined as 0.17 kcal/mol.

In the case of TGTAGCACGTGTTCAG, the “relative binding free energy” value was -0.2 kcal/mol. GGGGGCACGTGTAGTG: the “relative binding free energy” value is -0.03 kcal/mol. With TATGGCACGTGTCGTG, the “relative binding free energy” value is -0.07 kcal/mol. With GGGTACACGTGTGTTC, the “relative binding free energy” value is 0 kcal/mol. Turning to CGTTACACGTGGCTGG, the “relative binding free energy” value was -0.03 kcal/mol.

On to GGCAACACGTGTGGTG, for which the “relative binding free energy” value is 0.07 kcal/mol. As for TAGAACACGTGGGGAC, the figure is 0.22 kcal/mol; as for GGTGTCACGTGCAATG, 0.12 kcal/mol. Turning to CTATGCACGTGGCGGG, the “relative binding free energy” value was -0.2 kcal/mol.

Regarding CGTAGCACGTGGTGAA, the “relative binding free energy” value was -0.1 kcal/mol. As for TCACGCACGTGGAGGG, the figure is -0.08 kcal/mol. GAAGGCACGTGGTGCT: the “relative binding free energy” value was -0.35 kcal/mol. In the case of TGTGTCACGTGCATTA, the “relative binding free energy” value was -0.09 kcal/mol.

AGGGACACGTGTAGTA: the “relative binding free energy” value was -0.06 kcal/mol. Take AAGTTCACGTGGAGGC: the “relative binding free energy” value worked out at 0.1 kcal/mol. Regarding TTTTTCACGTGGTTAA, the “relative binding free energy” value is 0.23 kcal/mol.

Turning to TGTGTCACGTGACAGA, the “relative binding free energy” value is 0.19 kcal/mol. As to TCAGTCACGTGAGGAG, the “relative binding free energy” value came out at 0.27 kcal/mol. Then TAGGCCACGTGAGGTT, with 0.25 kcal/mol; and TAAGGCACGTGTAATT, with -0.02 kcal/mol. Regarding AGTGTCACGTGGTTCC, the “relative binding free energy” value stood at 0.14 kcal/mol. For TTCTGCACGTGAGTTA, the “relative binding free energy” value was 0.19 kcal/mol. On to AGAGGCACGTGGTCAT, for which the “relative binding free energy” value is -0.29 kcal/mol.

GGGGTCACGTGAGCTA: the “relative binding free energy” value came to 0.35 kcal/mol.

Consider AGCCGCACGTGGTTGG, for which the “relative binding free energy” value was -0.12 kcal/mol.

Consider TGGTGCACGTGAGCGT, for which the “relative binding free energy” value turned out to be 0.16 kcal/mol. Then AGCTACACGTGGAGTG, with 0.17 kcal/mol. Then AGTGCCACGTGTGTCT, with -0.06 kcal/mol. Then TTTTCCACGTGTGTAA, with 0.17 kcal/mol. On to CGAGCCACGTGTGGGT, for which the “relative binding free energy” value is -0.05 kcal/mol.

TTAGACACGTGGAATT: the “relative binding free energy” value was determined as 0.16 kcal/mol. For the sequence CTTGTCACGTGTGATT, the “relative binding free energy” value stood at 0.28 kcal/mol. Then TTTTTCACGTGAGTTC, with 0.46 kcal/mol; and ATGGTCACGTGCGGAT, with 0.09 kcal/mol. Consider GCAGGCACGTGGTGTT, for which the “relative binding free energy” value is -0.19 kcal/mol. On to GGTGTCACGTGGCTAT, for which the “relative binding free energy” value is -0.04 kcal/mol. As for AGTAACACGTGGGGAG, the figure is -0.14 kcal/mol. For TTAGGCACGTGCAGTA, the “relative binding free energy” value was -0.18 kcal/mol. As for TTGCTCACGTGGCGTG, the figure is 0.04 kcal/mol. With TAAAGCACGTGGGTTA, the “relative binding free energy” value was -0.12 kcal/mol.

Take TGTAGCACGTGTGAAG: the “relative binding free energy” value is 0 kcal/mol. As to GTAATCACGTGCAGGA, the “relative binding free energy” value came to 0.35 kcal/mol. For AAGTGCACGTGGTTCT, the “relative binding free energy” value was found to be 0 kcal/mol. Take TGAGACACGTGAGAGG: the “relative binding free energy” value was determined as 0.2 kcal/mol. With GGGTGCACGTGCGAGA, the “relative binding free energy” value turned out to be 0.06 kcal/mol. Take TCTTACACGTGTGGGG: the “relative binding free energy” value was found to be 0.21 kcal/mol.

As for AGTTTCACGTGGCGAT, the “relative binding free energy” value is 0.2 kcal/mol.

On to GGCGCCACGTGCGGGG, for which the “relative binding free energy” value was -0.25 kcal/mol.

As to TCGCGCACGTGTGTGT, the “relative binding free energy” value is -0.17 kcal/mol.

Turning to ACGGGCACGTGCGGGT, the “relative binding free energy” value was -0.15 kcal/mol. For the sequence ATTGACACGTGTTGCA, the “relative binding free energy” value was -0.13 kcal/mol. Take TAGAGCACGTGTGGGA: the “relative binding free energy” value is -0.05 kcal/mol. Consider TTGTCCACGTGTTGGT, for which the “relative binding free energy” value turned out to be 0.12 kcal/mol.

ATGCGCACGTGGGTCG: the “relative binding free energy” value was -0.33 kcal/mol. Consider TGCATCACGTGGTTGT, for which the “relative binding free energy” value was 0.09 kcal/mol. Then AGGCGCACGTGGAGAG, with -0.11 kcal/mol; and ACTGTCACGTGTAGTG, with 0.13 kcal/mol. Then TACATCACGTGGTGGT, with 0 kcal/mol. On to GTGTTCACGTGGGACG, for which the “relative binding free energy” value came to 0.32 kcal/mol. For ATGTACACGTGGGTAG, the “relative binding free energy” value is -0.08 kcal/mol.

Consider TCGTTCACGTGGGTTC, for which the “relative binding free energy” value is 0.19 kcal/mol. Take GGTGTCACGTGCATGG: the “relative binding free energy” value worked out at 0.23 kcal/mol. For GTTTGCACGTGAATAA, the “relative binding free energy” value was determined as 0.24 kcal/mol. Then CTGAGCACGTGGGTTC, with -0.16 kcal/mol; and CGCTTCACGTGGGTTT, with 0.35 kcal/mol. Then TGTTCCACGTGTGGCT, with 0.11 kcal/mol; and TTATGCACGTGAACTT, with 0.27 kcal/mol.

Consider GAGGACACGTGGAGAG, for which the “relative binding free energy” value is 0.06 kcal/mol. For the sequence ATCGACACGTGGGGGG, the “relative binding free energy” value was -0.1 kcal/mol. Turning to TTGCTCACGTGTCTTG, the “relative binding free energy” value was determined as 0.33 kcal/mol. Then AAAAGCACGTGTTGAT, with 0 kcal/mol. With ATGTGCACGTGGGCAT, the “relative binding free energy” value was -0.2 kcal/mol. For TGATTCACGTGGTGAG, the “relative binding free energy” value came out at 0.23 kcal/mol. Then TTGGGCACGTGGTTGT, with -0.02 kcal/mol.

TGGATCACGTGTGGGT: the “relative binding free energy” value was determined as 0.16 kcal/mol.

Turning to AGAGGCACGTGTGGCT, the “relative binding free energy” value is -0.02 kcal/mol.

On to ATGCTCACGTGTCGTG, for which the “relative binding free energy” value came out at 0.24 kcal/mol. For CTCTTCACGTGGGAGG, the “relative binding free energy” value amounted to 0.11 kcal/mol. Take GGTACCACGTGTTATT: the “relative binding free energy” value turned out to be 0.08 kcal/mol. Turning to TTGCTCACGTGGAATG, the “relative binding free energy” value came out at 0.2 kcal/mol. As for CGTGTCACGTGTGATA, the figure is 0.07 kcal/mol; as for GTGAGCACGTGGCTGA, -0.14 kcal/mol; as for TTAGACACGTGTGTCG, 0.03 kcal/mol. Turning to TTTTGCACGTGCTGTC, the “relative binding free energy” value is -0.12 kcal/mol. On to AGTATCACGTGAGGCT, for which the “relative binding free energy” value is 0.31 kcal/mol.

On to ATGGTCACGTGTGGCC, for which the “relative binding free energy” value turned out to be 0.03 kcal/mol. On to TTTAACACGTGCAGTG, for which the “relative binding free energy” value worked out at 0.05 kcal/mol. Turning to TCAGGCACGTGGGCGG, the “relative binding free energy” value is -0.12 kcal/mol. As for AGTGTCACGTGAACGG, the “relative binding free energy” value came out at 0.13 kcal/mol. As to TCACTCACGTGGGTGG, the “relative binding free energy” value turned out to be 0.09 kcal/mol.
